Data published in PubChem BioAssay AID485294 (National Center for Advancing Translational Sciences (NCATS), 2010).
In all, about 370,000 compounds went through this assay and about 150 (0.041%) were called active. This list was built around the results that the source calls inconclusive (neither active nor inactive); the mix of calls is not that of the screen. Calls come from the whole dose curve; as a rule, active = well fitted inhibition curve with a large enough effect; inconclusive = small, poorly fitted or top-dose-only effect; inactive = flat fitted curve, though single readings scatter. Potencies of inconclusive entries are left out as doubtful fits.

Target: Beta-lactamase (Escherichia coli (strain K12)) (UniProt P00811)
Test: qHTS Inhibitors of AmpC Beta-Lactamase (assay with detergent); note: nearly all actives have a fitted effect of over 25% in size;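 for activity change, negative = inhibition: 0% = no-compound wells and -100% = no-enzyme wells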
Details: AmpC hydrolysis of nitrocefin, absorbance 480 nm, 0.01% Triton; activity change, negative = inhibition: at 114 µM (top of the series)
Outline: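 AmpC (5.3 nM in the dispensed reagent) in 20 mM phosphate pH 7.0 with 0.01% (detergent screen) or 0.0001% Triton X-100 was preincubated with compounds for 15 min at room temperature. Nitrocefin was then added from an 800 uM solution, and hydrolysis was followed at 480 nm.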
Potency is the fitted concentration of half-maximal effect; tags give direction and shape of the fitted curve.

Sequence of UniProt P00811 (P00811 whole entry, looked up): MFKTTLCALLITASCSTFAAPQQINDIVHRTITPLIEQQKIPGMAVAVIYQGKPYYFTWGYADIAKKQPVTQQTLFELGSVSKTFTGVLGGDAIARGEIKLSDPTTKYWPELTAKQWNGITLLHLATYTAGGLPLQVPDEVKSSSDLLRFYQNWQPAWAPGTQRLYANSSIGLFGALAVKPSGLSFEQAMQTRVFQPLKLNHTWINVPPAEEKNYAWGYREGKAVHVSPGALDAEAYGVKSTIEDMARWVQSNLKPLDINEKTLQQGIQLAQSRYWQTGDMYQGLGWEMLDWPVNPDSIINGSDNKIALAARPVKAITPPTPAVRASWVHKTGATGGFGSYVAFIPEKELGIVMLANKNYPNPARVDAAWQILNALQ

Row | Compound | Potency | activity change, negative = inhibition
1 | Cn1c(CN2CCCC2)nc2cc(NC(=O)Nc3ccccc3)ccc21 | inconclusive [inhibitor, partial curve, poor fit] | 
2 | O=C(/C=C/c1ccccc1)N(Cc1ccc(Cl)cc1)C1CCS(=O)(=O)C1 (centres undefined) |  | inactive: 0.468%
3 | COc1ccc(N2C(=O)CC(c3ccc(OC(C)C)cc3)C2=O)cc1 (centres undefined) | inconclusive [inhibitor, full curve, poor fit] | 
4 | Cn1c(CNC(=O)c2ccccc2)nnc1SCC(=O)N1CCN(c2ccccc2)CC1 | inconclusive [inhibitor, full curve, poor fit] | 
5 | Cc1ccc(C)c(N2CCN(C(=O)c3ccc(CSc4nc5ccncc5[nH]4)cc3)CC2)c1 | inconclusive [inhibitor, partial curve, poor fit] | 
6 | COc1ccc(Cl)cc1NC(=O)COC(=O)c1ccc(Cl)nc1 | inconclusive [inhibitor, partial curve, poor fit] | 
7 | CCOC(=O)CNC(c1ccccc1)c1cc(Br)ccc1NC(=O)c1ccc(Cl)cc1 (centres undefined) |  | inactive: 5.35%
8 | CC1CCN(c2ccc(-c3cccc(NS(=O)(=O)c4ccc(Cl)s4)c3)nn2)CC1 | inconclusive [inhibitor, partial curve, poor fit] | 
9 | O=C(Nc1ccc(NC(=S)NC(=O)c2ccco2)cc1)c1ccccc1 | inconclusive [inhibitor, full curve, poor fit] | 
10 | O=S1(=O)CC(O)C(Nc2ccccc2Cl)C1 (centres undefined) | inconclusive [inhibitor, full curve, poor fit] | 
11 | COc1ccc(OCCNC(=O)c2ccc(C)cc2)cc1 |  | inactive: -0.752%
12 | Cc1ccc(S(=O)(=O)N2CCCC2CNC(=O)c2ccc3c(c2)OCO3)cc1 (centres undefined) |  | inactive: 0.0694%
13 | COc1cc(CNC2CCCC2)cc(Cl)c1OCc1ccc(F)cc1 |  | inactive: 4.43%
14 | N=c1c(C(=O)NCC2CCCO2)cc2c(=O)n3ccccc3nc2n1C1CCCC1 (centres undefined) | inconclusive [inhibitor, partial curve, poor fit] | 
15 | Nc1c(Cl)c(Cl)nc(C(=O)OCC(=O)N2CCCC2=O)c1Cl | inconclusive [inhibitor, partial curve, poor fit] | 
16 | O=C(CSc1oc(-c2ccco2)nc1S(=O)(=O)c1ccc(Cl)cc1)NCC1CCCO1 (centres undefined) |  | inactive: -4.91%
17 | C=CCNC(=O)c1c(O)c2cccc3c2n(c1=O)CCC3 | inconclusive [inhibitor, partial curve] | 
18 | CCCC1=C(C(=O)OCC)C(c2cc(Cl)cc(OC)c2OCC(=O)OCC)NC(=O)N1 (centres undefined) | inconclusive [inhibitor, full curve, poor fit] | 
19 | CCNc1c(NC(=O)COc2ccc(Cl)cc2)c(=O)oc2ccccc12 |  | inactive: -4.96%
20 | O=c1[nH]c2cc3c(cc2cc1CN(CC1CCCO1)S(=O)(=O)c1ccc(Cl)cc1)OCCO3 (centres undefined) |  | inactive: -6.5%
21 | Cc1ccc(OCCNC(=O)Cc2ccc(S(=O)(=O)N3CCOCC3)s2)cc1 |  | inactive: 0.312%
22 | CCOC(=O)c1c(NC(=O)c2ccccc2Cl)sc2c1CCc1ccccc1-2 | inconclusive [inhibitor, full curve] | 

Row | Compound | Potency | activity change, negative = inhibition
23 | CCCCNc1c(-c2ccc(SC3CCCCC3)cc2)nc2ccccn12 | inconclusive [inhibitor, full curve, poor fit] | 
24 | Cc1cc(=O)[nH]c(Nc2ccc(C(=O)OC(C)C)cc2)n1 | inconclusive [inhibitor, single point] | 
25 | Cc1ccc(C(=O)NCCNS(=O)(=O)c2ccccc2)cc1 | inconclusive [inhibitor, full curve] | 
26 | N#C/C(=C\c1ccc(OCc2ccccc2)cc1)C(=O)Nc1nc2c(s1)CCN(Cc1ccccc1)C2 |  | inactive: -7.94%
27 | O=C(Nc1ccccc1C(=O)O)c1ccc2ccccc2n1 |  | inactive: 1.3%
28 | COc1ccc(S(=O)(=O)N(C)CC(=O)NCc2ccco2)cc1OC |  | inactive: 0.407%
29 | COc1ccc(NC2=C(NCCO)C(=O)c3ccccc3C2=O)cc1 |  | inactive: -4.03%
30 | COc1ccc(-c2ncc(CN3CCN(CCC(C)C)C(CCO)C3)cn2)cc1 (centres undefined) |  | inactive: -4.07%
31 | O=C(O)COc1ccc(S(=O)(=O)N2CCCC2)cc1 | inconclusive [inhibitor, full curve, poor fit] | 
32 | COc1ccc(/C=N/NC(=O)c2cc(C34CC5CC(CC(C5)C3)C4)[nH]n2)cc1O | inconclusive [inhibitor, partial curve] | 
33 | CCOc1ccc(-c2nc(-c3ccccc3C)no2)cc1 | inconclusive [inhibitor, partial curve] | 
34 | O=c1c2cc(Br)cc(Br)c2oc2nc3n(c(=O)c12)CCCS3 | inconclusive [inhibitor, full curve, poor fit] | 
35 | CC(C)N(C#N)c1nc(N2CCOCC2)nc(N2CCOCC2)n1 | inconclusive [inhibitor, single point] | 
36 | Cc1cc(NS(=O)(=O)c2ccc(NC(=O)C(C)Oc3ccccc3Cl)cc2)no1 (centres undefined) | inconclusive [inhibitor, full curve] | 
37 | O=S(=O)(c1cccc(F)c1)N1CCN(Cc2ccc3c(c2)OCO3)CC1 | inconclusive [inhibitor, single point] | 
38 | COc1ccc(NC(=O)c2c(N)no[n+]2[O-])cc1 |  | inactive: -7.86%
39 | COc1ccc(CNC(=S)N/N=C/c2ccc(O)c(OC)c2)cc1 |  | inactive: -12%
40 | CCNc1nc(N)nc(Oc2ccc(OCC)nn2)n1 | inconclusive [inhibitor, full curve] | 
41 | Cc1cc(C)nc(N/N=C/C2=C(N3CCOCC3)C(=C\c3ccc(Cl)cc3)/CC2)n1 | inconclusive [inhibitor, full curve, poor fit] | 
42 | Cc1cc(S(=O)(=O)N(Cc2ccc(F)cc2)CC2CCCO2)ccc1-n1cnnn1 (centres undefined) | inconclusive [inhibitor, full curve, poor fit] | 
43 | CCC(C)NC(=O)CSc1nc2ccccc2c(=O)n1CCCC(=O)NCC1CCCO1 (centres undefined) | inconclusive [inhibitor, full curve, poor fit] | 
44 | O=C(CCC1CCCCC1)Nc1ccc(S(=O)(=O)Nc2nccs2)cc1 | inconclusive [inhibitor, full curve, poor fit] | 
